Some of the results follow. Values were computed here from the reads of four pooled replicates and scatter widely.

Experimental findings from the BET-seq Pho4 binding data (Le et al. 2018) are described below.

The target of this experiment is T1, Pho4 (S. cerevisiae) (UniProt P07270).
T1 sequence: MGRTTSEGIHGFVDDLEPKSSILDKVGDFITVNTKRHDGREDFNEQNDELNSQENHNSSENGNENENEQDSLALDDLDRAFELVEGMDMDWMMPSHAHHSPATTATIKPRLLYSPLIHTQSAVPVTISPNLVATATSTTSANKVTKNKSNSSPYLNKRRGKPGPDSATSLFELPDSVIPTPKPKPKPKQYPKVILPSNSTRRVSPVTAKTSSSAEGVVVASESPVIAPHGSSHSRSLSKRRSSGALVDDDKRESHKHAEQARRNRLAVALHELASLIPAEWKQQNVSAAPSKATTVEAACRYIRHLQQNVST
Kind of experiment: relative binding free energy (BET-seq); higher = weaker binding. The note with it: reference: library average.
Consider TGGTTCACGTGGTGGC, for which the “relative binding free energy” value came out at 0.23 kcal/mol.
As for TTGTTCACGTGTTCGT, the “relative binding free energy” value amounted to 0.23 kcal/mol.
Take AAGGTCACGTGTGGTC: the “relative binding free energy” value stood at 0.16 kcal/mol.
AAGCGCACGTGTGATG: the “relative binding free energy” value was -0.03 kcal/mol.
For TTCTTCACGTGAGGAG, the “relative binding free energy” value amounted to 0.32 kcal/mol.
Turning to GGTATCACGTGGCCGA, the “relative binding free energy” value amounted to 0.32 kcal/mol.
Consider AAGGGCACGTGCTGTA, for which the “relative binding free energy” value is -0.06 kcal/mol.
In the case of TGCGTCACGTGCGTGT, the “relative binding free energy” value stood at 0.02 kcal/mol.
For GTTTTCACGTGTTTTC, the “relative binding free energy” value was 0.3 kcal/mol.
For the sequence GCAGTCACGTGTGATG, the “relative binding free energy” value was found to be 0.14 kcal/mol.
As to TTAGGCACGTGTTTCT, the “relative binding free energy” value was -0.19 kcal/mol.
Consider GTGGGCACGTGCGAGC, for which the “relative binding free energy” value was -0.05 kcal/mol.
Take GTATCCACGTGGTGGG: the “relative binding free energy” value was -0.08 kcal/mol.
The value for ATTGTCACGTGACGCT was 0.37 kcal/mol.
Regarding CGTGACACGTGATGGG, the “relative binding free energy” value is 0.01 kcal/mol.
As for TTAGTCACGTGACGAG, the “relative binding free energy” value was determined as 0.32 kcal/mol.
In the case of TTGGTCACGTGCTCGT, the “relative binding free energy” value came out at 0.13 kcal/mol.
GTTTTCACGTGTCTAG: the “relative binding free energy” value came out at 0.48 kcal/mol.
On to GTGGGCACGTGTTAGT, for which the “relative binding free energy” value was -0.03 kcal/mol.
As for GTGGACACGTGATGTA, the “relative binding free energy” value amounted to 0.26 kcal/mol.
For CTTGGCACGTGTTTGC, the “relative binding free energy” value is -0.1 kcal/mol.
Turning to ATTGTCACGTGAGCAG, the “relative binding free energy” value turned out to be 0.22 kcal/mol.
For the sequence CTTCGCACGTGAGGTT, the “relative binding free energy” value turned out to be 0.17 kcal/mol.
With TTGTGCACGTGGCGCA, the “relative binding free energy” value was -0.16 kcal/mol.
TTTAGCACGTGGGAGA: the “relative binding free energy” value was 0.02 kcal/mol.
In the case of TATTACACGTGTCGTG, the “relative binding free energy” value amounted to 0.02 kcal/mol.
As for ATTGGCACGTGATTAT, the “relative binding free energy” value was -0.04 kcal/mol.
For the sequence TAGTTCACGTGGTGAA, the “relative binding free energy” value stood at 0.12 kcal/mol.
For GAGTGCACGTGTAACG the value was 0.22 kcal/mol; for GGTTCCACGTGGTGTA, 0.07 kcal/mol; for AATTTCACGTGCGGTG, 0.33 kcal/mol.
Consider GTGTACACGTGTAGTA, for which the “relative binding free energy” value was found to be 0.04 kcal/mol.
For TTGGTCACGTGTGGTC the value was 0.18 kcal/mol; for GTAGTCACGTGTTGAG, 0.08 kcal/mol.
As to TTAGCCACGTGTGTAA, the “relative binding free energy” value worked out at 0.02 kcal/mol.
Take AGTTGCACGTGGGACG: the “relative binding free energy” value was -0.07 kcal/mol.
The value for TAAAACACGTGGAGTT was 0.08 kcal/mol; that for GTTAGCACGTGGGCCT was -0.13 kcal/mol; that for AGTGTCACGTGTTTCT was 0.09 kcal/mol.
GGGATCACGTGGTGAG: the “relative binding free energy” value came out at 0.18 kcal/mol.
For CGGATCACGTGTTTGT the value was 0.21 kcal/mol; for GTTTGCACGTGATGGC, 0.18 kcal/mol; for GCGTTCACGTGAGTGA, 0.37 kcal/mol.
The value for GAGAGCACGTGGTCAG was -0.09 kcal/mol; that for TTAGGCACGTGCGTAG was -0.31 kcal/mol.
In the case of AGGAGCACGTGCAGGG, the “relative binding free energy” value is -0.2 kcal/mol.
As to ATGCTCACGTGGGGAG, the “relative binding free energy” value came out at 0.22 kcal/mol.
As to AATTTCACGTGGGCAG, the “relative binding free energy” value worked out at 0.24 kcal/mol.
In the case of TAGCTCACGTGGGGTC, the “relative binding free energy” value stood at 0.12 kcal/mol.
For TTTGTCACGTGGATGC, the “relative binding free energy” value is -0.02 kcal/mol.
With ATTTACACGTGGGGTC, the “relative binding free energy” value is -0.06 kcal/mol.
Regarding GTGAGCACGTGGTCTG, the “relative binding free energy” value was -0.07 kcal/mol.
As for TTGCTCACGTGGTATG, the “relative binding free energy” value was -0.04 kcal/mol.
As for AGGGTCACGTGTTATG, the “relative binding free energy” value was found to be 0.06 kcal/mol.
As to GGCTTCACGTGTCTGG, the “relative binding free energy” value came to 0.34 kcal/mol.
For the sequence CTTTTCACGTGCGGAG, the “relative binding free energy” value is 0.28 kcal/mol.
For GATAACACGTGGATGG, the “relative binding free energy” value is -0.08 kcal/mol.
For TACTTCACGTGATTTG, the “relative binding free energy” value was determined as 0.43 kcal/mol.
As to TGGGGCACGTGGTGTG, the “relative binding free energy” value was -0.13 kcal/mol.
Turning to TAAGTCACGTGTCATT, the “relative binding free energy” value turned out to be 0.14 kcal/mol.
TTCTGCACGTGAGGAT: the “relative binding free energy” value was found to be 0.17 kcal/mol.
For the sequence AGGGACACGTGACTGT, the “relative binding free energy” value was 0.25 kcal/mol.
In the case of ATGTCCACGTGGAGTG, the “relative binding free energy” value amounted to 0.06 kcal/mol.
Turning to TATATCACGTGATATG, the “relative binding free energy” value was 0.29 kcal/mol.
For the sequence CAAGTCACGTGCGGTT, the “relative binding free energy” value worked out at 0.09 kcal/mol.
As to CTGGACACGTGAGGAG, the “relative binding free energy” value stood at 0.21 kcal/mol.
As for CGTATCACGTGTGTAT, the “relative binding free energy” value is 0.03 kcal/mol.
Turning to AATATCACGTGGGAGA, the “relative binding free energy” value was determined as 0.12 kcal/mol.
On to TGGGGCACGTGAAGTA, for which the “relative binding free energy” value came out at 0.09 kcal/mol.
On to GATATCACGTGGTGGG, for which the “relative binding free energy” value was 0.15 kcal/mol.
The value for ATTAGCACGTGGCGTG was -0.2 kcal/mol.
With TTTTTCACGTGATTCC, the “relative binding free energy” value came to 0.53 kcal/mol.
Regarding AGGAACACGTGTCTGT, the “relative binding free energy” value worked out at 0.12 kcal/mol.
Take ACTAGCACGTGTTGTT: the “relative binding free energy” value is 0.04 kcal/mol.
With GATTTCACGTGTTTCG, the “relative binding free energy” value stood at 0.31 kcal/mol.
GTTGTCACGTGTGTTT: the “relative binding free energy” value is 0.25 kcal/mol.
In the case of AGCATCACGTGGGTTT, the “relative binding free energy” value amounted to 0.1 kcal/mol.
For GGCGGCACGTGCTGGA the value was -0.13 kcal/mol; for AAGTGCACGTGGGTTC, -0.15 kcal/mol; for ATATTCACGTGTGGGT, 0.32 kcal/mol.
Consider AGTTGCACGTGCTGTG, for which the “relative binding free energy” value was -0.14 kcal/mol.
For TTTTTCACGTGACATT, the “relative binding free energy” value worked out at 0.34 kcal/mol.
Take GTATGCACGTGAGCTA: the “relative binding free energy” value was 0.3 kcal/mol.
Consider GTAGACACGTGTTCGT, for which the “relative binding free energy” value came out at 0.08 kcal/mol.
Turning to TGTGACACGTGGGACG, the “relative binding free energy” value is -0.26 kcal/mol.
With ATTATCACGTGTGGTA, the “relative binding free energy” value amounted to 0.18 kcal/mol.
On to CATGGCACGTGAGGAG, for which the “relative binding free energy” value was determined as 0.15 kcal/mol.
Turning to TTATTCACGTGAATAT, the “relative binding free energy” value was 0.38 kcal/mol.
For GGTCACACGTGGTGCA, the “relative binding free energy” value was 0.09 kcal/mol.
TGTCACACGTGTGTAT: the “relative binding free energy” value is 0.18 kcal/mol.
As for TCTTGCACGTGTTGAA, the “relative binding free energy” value turned out to be 0.05 kcal/mol.
For the sequence TCTGGCACGTGCTGGT, the “relative binding free energy” value is -0.16 kcal/mol.
Turning to TTAGTCACGTGGGGGG, the “relative binding free energy” value was -0.06 kcal/mol.
As for GTTTCCACGTGGGTGG, the “relative binding free energy” value stood at 0.08 kcal/mol.
On to GGGTCCACGTGTGATA, for which the “relative binding free energy” value came out at 0.18 kcal/mol.
On to GTTGACACGTGTGATC, for which the “relative binding free energy” value is 0.4 kcal/mol.
Take TCTATCACGTGGTAGT: the “relative binding free energy” value was determined as 0.14 kcal/mol.
For GGTAGCACGTGTGGAC, the “relative binding free energy” value is 0.04 kcal/mol.
As to CGGTTCACGTGGTCGA, the “relative binding free energy” value stood at 0.26 kcal/mol.
For GTCAGCACGTGTTGAG the value was 0.03 kcal/mol; for GGTGGCACGTGAGGCA, 0.16 kcal/mol; for AGTTACACGTGTTAGA, 0.12 kcal/mol.
In the case of GTTGGCACGTGTGGTA, the “relative binding free energy” value amounted to 0.03 kcal/mol.
With GGGAGCACGTGGAAGG, the “relative binding free energy” value was determined as 0.06 kcal/mol.
For TGTGACACGTGCGGGC, the “relative binding free energy” value was -0.03 kcal/mol.
For the sequence AAAATCACGTGGATGG, the “relative binding free energy” value amounted to 0.19 kcal/mol.
As to TGATGCACGTGGTTTC, the “relative binding free energy” value was -0.07 kcal/mol.
Take CATGGCACGTGGTAAT: the “relative binding free energy” value is -0.19 kcal/mol.
The value for AATATCACGTGAAGTG was 0.29 kcal/mol; that for TTGTTCACGTGGTCCA was 0.16 kcal/mol.
The value for AGTTCCACGTGATGAG was 0.22 kcal/mol.
In the case of GGGTGCACGTGTGCAT, the “relative binding free energy” value is -0.02 kcal/mol.
As to GTCACCACGTGAGGGT, the “relative binding free energy” value was determined as 0.22 kcal/mol.
In the case of TAAGTCACGTGTGTGA, the “relative binding free energy” value was found to be 0.17 kcal/mol.
AGCAGCACGTGTGATG: the “relative binding free energy” value was -0.03 kcal/mol.
